Test results reported in PubChem BioAssay AID1240 (Sanford-Burnham Center for Chemical Genomics, 2008).
Several values for one entry are separate records, joined by “and”; a condition that tells them apart may be missing. Equal values may be shown once. Hit rate of the full screen: of about 50,000 compounds, about 800 (1.6%) showed an effect of 50% or more. The list shows a part of the results.

target: Bcl-2-like protein 10 (Homo sapiens) (UniProt Q9HD36); experiment: Phenotype converters, Bcl-B/TR3 peptide binding displacement, primary biochemical FP (AID 1240); conditions: GST-Bcl-B / FITC-TR3 peptide fluorescence polarization; stronger effect = higher value; compound at 3.75 mg/L;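 also: 0% = Bcl-B with tracer peptide and DMSO and 100% = tracer peptide lacking Bcl-B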
UniProt Q9HD36, sequence (Q9HD36 whole entry, looked up): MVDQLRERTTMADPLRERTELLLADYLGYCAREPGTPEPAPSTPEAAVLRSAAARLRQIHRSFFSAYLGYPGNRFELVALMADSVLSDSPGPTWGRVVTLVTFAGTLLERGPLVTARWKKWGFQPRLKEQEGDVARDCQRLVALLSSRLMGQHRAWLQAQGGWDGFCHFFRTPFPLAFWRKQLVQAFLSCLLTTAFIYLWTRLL

| Structure (SMILES) | displacement |
| --- | --- |
| Cc1ccccc1NC(=O)C(=O)NCc1ccccc1 | 9% |
| Cc1cc2nc(-c3cccc(NC(=O)COc4ccccc4[N+](=O)[O-])c3)oc2cc1C | 6.8% |
| COc1ccc(C2CC(=O)C3=C(C2)Nc2ccccc2NC3c2ccc(Cl)c([N+](=O)[O-])c2)cc1 (stereo not given) | -11.9% |
| COc1ccc2c(C)cc(=S)[nH]c2c1 | 5.8% and -0.9% |
| O=C1c2cccc3c(N4CCCCC4)ccc(c23)C(=O)N1c1ccc(Cl)cc1 | 5.7% |
| Cc1c(OCC(=O)N(C)C)ccc2c3c(c(=O)oc12)CCCC3 | -5.8% |
| NC(=O)C1CCN(C(=O)c2ccccc2Br)CC1 | -2.2% |
| O=C1OC2C=CC=CC2C=C1C(=O)N1CCSC1c1ccc2c3c(cccc13)CC2 (stereo not given) | 11.9% |
| O=CN1CCN(C(=O)COc2ccc3ccccc3c2)CC1 | 10.1% |
| CCOC(=O)C1=C(O)/C(=C/N(C)C)SC1=Nc1ccc([N+](=O)[O-])cc1 | -14.8% |
| NS(=O)(=O)c1ccc(NC(=O)CCCN2C(=O)/C(=C/c3ccc(Cl)cc3)SC2=S)cc1 | -0.5% |
| COc1cccc(-c2cc(C(=O)Nc3ccc(S(=O)(=O)Nc4nccc(C)n4)cc3)c3ccccc3n2)c1 | 1.3% |
| O=C(O)CCCNS(=O)(=O)c1ccc(NCc2ccccc2)c(C(=O)O)c1 | 0.1% |
| CCC1S/C(=N\N=C\c2cccc3ccccc23)NC1=O (stereo not given) | 127% |
| C=CCN1C(=O)/C(=C/c2cc(C)n(-c3ccc(C(=O)OC)cc3)c2C)SC1=S | 109% |
| CCN(CC)S(=O)(=O)c1ccc(C(=O)Nc2sc3c(c2C(N)=O)CCCC3)cc1 | 5.2% |
| N#CCn1cc(/C=C(/C#N)C(=O)Nc2cccc(Br)c2)c2ccccc21 | 45.9% |
| O=C(Cc1ccc(F)cc1)NCCc1ccccc1 | 4.6% |
| CCCN1C(=O)c2ccccc2NC1c1c(Cl)cccc1Cl (stereo not given) | -5.4% |
| Cc1cc(NC(=O)C2CCCCC2)cc(C)c1O | -2.7% |
| COc1ccc(-c2csc(/C(C#N)=C\c3sccc3C)n2)cc1 | 1.8% |
| O=C(NC(=S)NCc1ccco1)c1ccc([N+](=O)[O-])cc1 | -1% |

| Structure (SMILES) | displacement |
| --- | --- |
| CC/C(=N\N=C(/CC)c1ccccc1N)c1ccccc1N | 13.2% |
| Cc1ccc(-c2csc(NC(=O)c3sc4ccccc4c3Cl)n2)c(C)c1 | 2.6% |
| CC1=C(C(=O)Nc2ccccc2)C(c2ccco2)N2C(=O)CSC2=N1 (stereo not given) | -7.2% |
| COc1ccc(OC)c(C2CC(=O)C(C)C(c3cc(OC)ccc3OC)N2)c1 (stereo not given) | -5.2% |
| Cc1ccc2[nH]c(C(=O)N/N=C/c3ccncc3)c(-c3ccccc3)c2c1 | -11.1% |
| Cc1ccccc1CNC(=O)c1cccc(Cl)c1 | 1.1% |
| COC(=O)C1=C(C)N(CCc2ccccc2)C(=O)C1 | -11.9% |
| O=C(COc1ccc(Br)cc1)NCc1ccncc1 | -15.4% |
| CCN1C(=O)C(=Cc2ccc(O)cc2)C(=O)NC1=S | 8.3% |
| CCOC(=O)C1=C(O)/C(=C/c2ccc(Br)cc2)SC1=Nc1ccccc1 | -15.8% |
| CCOC(=O)C1CCN(S(=O)(=O)c2ccc(-c3ccc([N+](=O)[O-])cc3)cc2)CC1 | 12.4% |
| CCOC(=O)c1c(NC(=O)/C=C\C(=O)O)sc2c1CCC(CC)C2 (stereo not given) | -1.1% |
| C=CCNc1nc(-c2ccc(Cl)cc2)nc2ccccc12 | -3.8% |
| COc1ccc(C=Nc2ccc3c(c2)nc(C)n3C)cc1 | 7.5% |
| CCOC(=O)CNS(=O)(=O)c1cc(Cl)ccc1Cl | -15.2% |
| Cc1oc2ccc(OCc3cccc(Cl)c3)cc2c1C(=O)O | 11.3% |
| O=C(/C=C\Nc1ccccc1[N+](=O)[O-])c1ccc2c(c1)OCO2 | 9.4% |
| CCOc1ccc(S(=O)(=O)N(CC(=O)Nc2ccccc2CC)c2ccc(C)cc2)cc1 | 4.9% |
| CCc1ccccc1NC(=O)C(=O)NCC(C)O (stereo not given) | -1.3% |
| CCCc1c(C)nc2ccc(C)cc2c1SCC(=O)O | -3.6% |
| Cc1ccc(C2(c3ccc(C)cc3)CC2C(=O)NC(C)(C)C)cc1 (stereo not given) | -1.3% |
| O=C1S/C(=C/c2ccccc2F)C(=O)N1CNc1ccccc1Cl | 7.1% |

| Structure (SMILES) | displacement |
| --- | --- |
| COc1ccc(C(C)NC(=O)CN(c2ccccc2C)S(=O)(=O)c2ccc(C)cc2)cc1 (stereo not given) | 4.5% |
| COc1cc(/C=C2\SC(=S)N(CC(C)C)C2=O)ccc1O | 91.5% |
| O=C(CCc1ccccc1)NCc1ccc2c(c1)OCO2 | 14.7% |
| COc1ccc(/C=C2\SC(=Nc3cccc(Cl)c3C)NC2=O)c(OC)c1 | 6.8% |
| C=CCSc1nc(C)c2cc(OCC)ccc2n1 | 7.4% |
| CC1=C(C(=O)OCCOc2ccccc2)C(c2cccc(Cl)c2)C2=C(CCCC2=O)N1 (stereo not given) | -12.9% |
| Cc1ccc(S(=O)(=O)c2cc(O)ccc2O)cc1 | 8.2% |
| COc1cccc(CN2CCN(C(=O)c3cccc(F)c3)CC2)c1OC | -8% |
| CCOC(=O)c1c(NC(=O)C2C3C=CC(C3)C2C(=O)O)sc(C)c1C (stereo not given) | 2.9% |
| CC1SC2(C(=O)Nc3ccccc32)N(c2ccccc2)C1=O (stereo not given) | 5.7% |
| C=CCNCc1cccn1-c1sc2c(c1C#N)CCCC2 | -2.9% |
| CCOc1ccc(C(=O)Nc2cc(-c3nc4ccccc4o3)ccc2OC)cc1Br | -12.6% |
| Cc1nc(N(CCC#N)CCC#N)sc1C(C)(C)C | -5.3% |
| COc1ccc(OC)c(C2c3c(-c4ccccc4)n[nH]c3C(=O)N2c2ccccc2)c1 (stereo not given) | 0.7% |
| O=Cc1cccc(OCc2ccccc2F)c1 | -0.4% |
| CC1=NN(c2cccc(C(=O)O)c2)C(=O)/C1=C\c1cccs1 | 6.2% |
| COc1ccc(Cl)cc1NC(=O)CN(c1ccc(C)cc1)S(=O)(=O)c1ccc(F)cc1 | 24.1% |
| Cc1ccc(Cl)cc1NC(=O)COc1ccc2ccccc2c1 | -4.8% |
| Cc1ccc(C)c(N=C(NO)C(=Nc2cc(C)ccc2C)NO)c1 | -17.3% |
| CCOC(=O)c1c(NC(=S)NC(=O)/C=C/c2cccs2)sc(C)c1C | 2.4% |
| COc1cccc(NC(=O)CSc2nc3ccccc3o2)c1 | 10.3% |
| O=C(Nc1nc(C23CC4CC(CC(C4)C2)C3)cs1)c1ccc(F)cc1 | -6.9% |

| Structure (SMILES) | displacement |
| --- | --- |
| COc1ccc(N(CC(=O)Nc2ccc(I)cc2)S(C)(=O)=O)c(OC)c1 | -7% |
| CC1=C(C(=O)Nc2ccccc2)C(c2ccc3c(c2)OCO3)NC(=S)N1 (stereo not given) | -5.7% |
| CCOC(=O)N1CCN(C2CC(=O)N(c3cccc(Br)c3)C2=O)CC1 (stereo not given) | 2.1% |
| O=C(c1nn2c(c1Br)NC(c1cccs1)CC2C(F)(F)F)N1CCCc2ccccc21 (stereo not given) | 2.4% |
| O=C(COc1ccc(Br)cc1)Nc1ccc2oc(-c3ccccc3F)nc2c1 | 5.1% |
| O=C1S/C(=C/c2ccccc2F)C(=O)N1CNc1ccc(I)cc1 | -0.6% |
| O=C(CCNC(=O)/C(=C\c1ccco1)NC(=O)c1ccco1)OCc1ccccc1 | 6.1% |
| CC(=O)C1=C(C)NC(=S)NC1c1ccc(C)cc1 (stereo not given) | -10.3% |
| Cc1ccc(CSCCNC(=O)CN(c2ccc(C)cc2)S(=O)(=O)c2ccc(F)cc2)cc1 | 2.4% |
| COc1cccc(C=C2C=C(C(C)(C)C)C(=O)C(C(C)(C)C)=C2)c1OC | -11.5% |
| CCOC(=O)C1=CS/C(=C2/C(=S)C(C)(C)Nc3c(OCC)cccc32)S1 | 1.3% |
| COc1ccccc1-c1c(C(F)(F)F)oc2c(CN(C)C)c(O)ccc2c1=O | 11.4% |
| CCOC(=O)C(CCc1nnc(N)s1)C(=O)OCC | 4.2% |
| O=C1C2C3c4ccccc4C(c4ccccc43)C2C(=O)N1C12CC3CC(CC(C3)C1)C2 (stereo not given) | 6.8% |
| COc1ccc(Cl)cc1C(=O)NCc1ccccn1 | 10.2% |
| COCCOC(=O)C1=C(C)NC2=C(C(=O)CCC2)C1c1cccc(Cl)c1 (stereo not given) | 7.5% |
| Cc1cccc(C(=O)N2CCN(c3cc(C)c(C#N)c4nc5ccccc5n34)CC2)c1 | 8.9% |
| CCN(CC)c1ccc(C=Nc2ccccc2C(=O)Nc2ccccc2)c(O)c1 | -4% |
| COc1ccccc1C(=O)NNC(=O)COc1ccccc1Cl | -8.7% |
| OC(c1ccc2c(c1)OCO2)c1nc2ccccc2n1Cc1ccccc1 (stereo not given) | -5.3% |
| O=C(c1c(Cl)cccc1Cl)N1CCOCC1 | -2.6% |
| COc1cc(C(C)=O)ccc1OC(=O)CN1C(=O)c2ccccc2C1=O | 0.4% |

| Structure (SMILES) | displacement |
| --- | --- |
| CS(=O)(=O)N(Cc1ccc(C(=O)N2CCOCC2)cc1)c1ccccc1 | -2.7% |
| Cc1ccc(N2C(=O)CSC2c2ccc([N+](=O)[O-])cc2)cc1 (stereo not given) | -0.4% |
| Oc1cc(OCc2ccccc2Cl)ccc1-c1[nH]ncc1-c1ccccc1 | 77.4% |
| CC(=O)Nc1c(O)nc(SCc2ccc([N+](=O)[O-])cc2)[nH]c1=O | 5.3% |
| CN(C)CCCN1C(=O)CSC1c1ccc(Br)cc1 (stereo not given) | 8.4% |
| O=c1c(/C=N/N2CCOCC2)c(C(F)(F)F)[nH]n1-c1nc2ccccc2s1 | -6.4% |
| O=C(Nc1cc(O)ccc1C(=O)O)c1cccc(Br)c1 | 12.4% |
| CCCCSc1nc2ccccc2c(=O)n1Cc1ccccc1 | -9.1% |
| Cc1cc2c3c(c1)C1C=CCC1C(c1cccc([N+](=O)[O-])c1)N3CC1CC=CC21 (stereo not given) | 13.6% |
| Cc1cccc(NC(=O)C2(c3ccccc3)CCCC2)n1 | -8.3% |
| CC(=O)N(C)c1ccc(N2CCCCC2)c2c1C(=O)c1ccccc1C2=O | 9.4% |
| CCc1ccccc1N(CC(=O)NCC(C)C)S(C)(=O)=O | -4.4% |
| CC(=O)C(C(C)=O)C(SCc1ccccc1)c1ccccc1 (stereo not given) | 7.9% |
| Cn1c(=O)c2c3c(sc2n2c(SCC(=O)c4ccc(Br)cc4)nnc12)CCC3 | -8.3% |
| O=C(/C=C/c1ccc([N+](=O)[O-])cc1)NC1CCCCC1 | -8.7% |
| CCC(C(=O)NCc1ccccc1)c1ccccc1 (stereo not given) | 7.4% |
| O=C(Nc1ccccn1)[C@@H]1C2C=CC(C2)[C@@H]1C(=O)O (stereo not given in full) | -9.3% |
| CCOc1ccc(NC(=S)NC(NC(=O)c2cccc(I)c2)C(Cl)(Cl)Cl)cc1 (stereo not given) | 17.7% |
| Cc1c(Br)c(C(F)(F)F)nn1CC(=O)Nc1cccc(O)c1 | -2.8% |
| CCOc1ccccc1N(CC(=O)Nc1cc(Cl)cc(Cl)c1)S(=O)(=O)c1ccccc1 | -4.5% |
| COc1ccc(OCC(=O)N/N=C\c2cc(O)c(O)c(Br)c2)c(Br)c1 | 13.2% |
| O=C(Nc1cccc(Br)c1)C(=O)NC1CCCC1 | 5.2% |
